# In all, about 220,000 compounds went through this assay and about 16,000 (7.3%) were called active. This list was built around the results that the source calls inconclusive (neither active nor inactive); the mix of calls is not that of the screen. The call rests on the fitted dose curve; in most records, active means well fitted inhibition curve with a large enough effect (not every such curve was filed as active); inconclusive means small, poorly fitted or top-dose-only effect, or another doubt; inactive means no such curve, though single readings can be large or run the other way. Potencies of inconclusive entries are left out as doubtful fits.
# Biological target: Aldehyde dehydrogenase 1A1 (Homo sapiens) (UniProt P00352)
# Assay: qHTS Assay for Inhibitors of Aldehyde Dehydrogenase 1 (ALDH1A1)
# Conditions: Purified ALDH1A1, NADH fluorescence, propionaldehyde substrate; series mostly up to 75.3 µM
# Potency means the concentration at half of the fitted maximal effect; tags describe the fitted curve by direction and shape.
# UniProt P00352, sequence (P00352 whole entry, looked up): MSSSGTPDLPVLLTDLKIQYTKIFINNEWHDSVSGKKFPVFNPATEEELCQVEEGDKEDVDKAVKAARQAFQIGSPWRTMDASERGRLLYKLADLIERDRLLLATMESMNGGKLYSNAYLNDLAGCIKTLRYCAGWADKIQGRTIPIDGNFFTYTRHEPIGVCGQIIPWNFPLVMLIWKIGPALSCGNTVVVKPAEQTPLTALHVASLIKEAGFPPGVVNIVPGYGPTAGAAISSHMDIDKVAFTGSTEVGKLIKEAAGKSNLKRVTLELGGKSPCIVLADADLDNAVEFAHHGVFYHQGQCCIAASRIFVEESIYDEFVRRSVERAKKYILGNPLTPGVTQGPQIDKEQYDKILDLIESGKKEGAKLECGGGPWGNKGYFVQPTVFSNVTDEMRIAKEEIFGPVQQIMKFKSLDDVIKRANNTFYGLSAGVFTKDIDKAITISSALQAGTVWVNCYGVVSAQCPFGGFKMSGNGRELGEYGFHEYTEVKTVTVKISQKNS
row,SMILES,Potency
1,CCN1CCN(c2cc(C)c3cc(NC(=S)N4CCCC4)ccc3n2)CC1,"inconclusive [inhibitor, single point]"
2,Cc1cc(C)c(C#N)c(SCC(=O)Nc2ccccc2)n1,inactive
3,CC(=O)N1CCC2(CC1)CCN(c1ccccc1)CC2,inactive
4,O=C(COC(=O)CNC(=O)c1cccc([N+](=O)[O-])c1)Nc1cccc(S(=O)(=O)N2CCCC2)c1,"inconclusive [inhibitor, partial curve]"
5,COC(=O)C(C(=O)Nc1ccc(OC)cc1)C1CCCCCC1 (centres undefined),"inconclusive [inhibitor, full curve]"
6,COc1ccccc1-n1cnnc1SCC(=O)NCC1CCCO1 (centres undefined),"inconclusive [inhibitor, partial curve]"
7,Fc1ccc(N/N=C/c2cccnc2)c(F)c1,"inconclusive [inhibitor, single point]"
8,O=c1cc(CN2CCN(c3ccccc3)CC2)nc2scc(-c3ccccc3)n12,"inconclusive [inhibitor, single point]"
9,CSCCC(=O)N1CCCC(CNC(=O)c2ccc(-c3ccccc3)cc2)C1 (centres undefined),"inconclusive [inhibitor, single point]"
10,Cc1ccc(N/C=C(\C#N)c2ccc(OCCCF)cc2)cc1,"inconclusive [inhibitor, partial curve, poor fit]"
11,CCOC(=O)N1CCC(=NNC(=O)c2ccc(O)cc2)CC1,"inconclusive [inhibitor, single point]"
12,N/C(=N\OC(=O)CCCCCN1C(=O)c2ccccc2C1=O)c1ccccc1,"inconclusive [inhibitor, single point]"
13,Cn1c(N)c(C(=O)COC(=O)/C=C/c2ccc(OC(F)F)cc2)c(=O)n(C)c1=O,inactive
14,Oc1csc(Cc2nc(-c3ccc(Br)cc3)cs2)n1,active: 28.2 µM
15,O=C(NCc1cccc(F)c1)c1noc2c1CCCC2,"inconclusive [inhibitor, single point]"
16,O=C1c2ccccc2C(=O)N1CCSc1n[nH]c(=S)s1,active: 2.24 µM
17,O=C(CN1CCCC1)Nc1cc(C(F)(F)F)ccc1Cl,"inconclusive [inhibitor, single point]"
18,CNc1nc(-c2ccccc2OC)nc2ccccc12,"inconclusive [inhibitor, partial curve]"
19,CCOc1ccc(C(=O)CN2CCN(S(=O)(=O)c3ccc(F)cc3)CC2)cc1,active: 20 µM
20,CC(C)C(=O)N1CCN(c2nc(-c3ccccc3)c3c(c2C#N)CCCC3)CC1,"inconclusive [inhibitor, partial curve]"
21,CCOC(=O)C(C(C)=O)C(c1ccc(OC)cc1)C(C(C)=O)C(=O)OCC (centres undefined),inactive
22,CCOC(=O)C1CCCN(c2ncnc3c2cnn3-c2ccc(Cl)cc2)C1 (centres undefined),"inconclusive [inhibitor, single point]"
23,O=C(CSc1nc(-c2ccccc2)cc(C(F)(F)F)n1)N1CCOCC1,inactive
24,Cc1cccc(NC(=O)CS(=O)(=O)c2cn(C)c3ccccc23)c1C,"inconclusive [inhibitor, single point]"
25,Cc1cc(C)nc(NC2=NCC(=O)N2c2ccccc2)n1,"inconclusive [inhibitor, single point]"

row,SMILES,Potency
1,Cc1ccc(C(=O)N2CCC(C)CC2)cc1C,active: 11.2 µM
2,CCC(C)NS(=O)(=O)c1ccc(OCC(=O)Nc2ccc(F)cc2F)cc1 (centres undefined),inactive
3,COc1ccccc1Nc1nc(-c2cccc(N3C(=O)c4ccccc4C3=O)c2)cs1,"inconclusive [inhibitor, single point]"
4,O=S(=O)(c1ccc(NC(=S)N2CCN(c3ccc(O)cc3)CC2)cc1)N1CCOCC1,"inconclusive [inhibitor, single point]"
5,CCn1c(N)c(C(=O)NCc2ccco2)sc1=S,active: 14.1 µM
6,Cc1nc(SCc2ccc(Cl)c(Cl)c2)ncc1C(=O)O,inactive
7,Cc1ccc(CC2CC(=O)N(c3nc4ccccc4n3C)C2=O)cc1 (centres undefined),inactive
8,O=C(Nc1ccn(Cc2cccc3ccccc23)n1)c1cccnc1,inactive
9,COc1ccccc1-c1nccc(NC2CCNCC2)n1,inactive
10,Cc1ccc(-n2ncc3c(NCCCOC(C)C)ncnc32)c(C)c1,"inconclusive [inhibitor, single point]"
11,O=S(=O)(NCCCCCNS(=O)(=O)c1ccc(F)cc1)c1ccc(F)cc1,"inconclusive [inhibitor, partial curve]"
12,COC(=O)C(Cc1ccccc1)NC(=O)C(CC(C)C)NC(=O)OC(C)(C)C (centres undefined),inactive
13,Cc1cccc(NC(=O)CCC(=O)N/N=C/c2ccncc2)c1,inactive
14,COc1ccc(N(C(=O)CNC(=O)c2cccs2)C(C(=O)NC2CCCC2)c2cccnc2)cc1 (centres undefined),inactive
15,S=C1COC(c2ccccc2)N1c1ccccc1 (centres undefined),inactive
16,C=CCn1c(N)c(C(=O)OCCC)c2nc3ccccc3nc21,"inconclusive [inhibitor, partial curve]"
17,O=C(C1CCCCC1)N1CC(=O)N2CCc3ccccc3[C@@H]2C1,"inconclusive [inhibitor, partial curve]"
18,COc1cc2c(OC(C)=O)c3c(c(-c4ccc5c(c4)OCO5)c2cc1OC)C(=O)OC3,"inconclusive [inhibitor, single point]"
19,COCc1cc(C)nc(OCC(=O)N/N=C/c2ccc(C)o2)c1C#N,"inconclusive [inhibitor, single point]"
20,Cc1cccc(NC(=O)CSc2nnc(Cn3cnc4ccccc43)o2)c1,"inconclusive [inhibitor, single point]"
21,CC1=C(C(=O)N2CCCCC2)C(c2cccs2)C2=C(CCCC2=O)N1 (centres undefined),"inconclusive [inhibitor, single point]"
22,Cc1ccccc1OCc1nnc(SCC(=O)Nc2ccc3nc(SCC(=O)NC(C)(C)C)sc3c2)n1C,"inconclusive [inhibitor, single point]"
23,O=C(COc1ccccc1)Nc1ccccc1NS(=O)(=O)c1cccs1,inactive
24,COc1ccc(NC(=O)CSc2nnc(CCC(=O)O)c(=O)n2N)cc1,"inconclusive [inhibitor, partial curve]"
25,CCCCNc1nc(C)nc2c1nc(-c1ccccc1)n2CC(C)(C)CN(C)C,"inconclusive [inhibitor, partial curve]"

row,SMILES,Potency
1,Oc1ccc(Cn2cc[nH]c2=S)cc1,"inconclusive [inhibitor, single point]"
2,O=C(COC(=O)Cc1ccc(Br)cc1)NC12CC3CC(CC(C3)C1)C2,"inconclusive [inhibitor, single point]"
3,COc1ccc(NC(=O)CSc2nc3c(c(=O)n2-c2ccccc2OC)SCC3)cc1,active: 11.2 µM
4,CC(C)C(NC(=O)C1CCCCC1)C(=O)Nc1ccc2c(c1)OCCO2 (centres undefined),"inconclusive [inhibitor, single point]"
5,O=C(NCc1ccccc1)Nc1cccn(Cc2c(F)cccc2Cl)c1=O,"inconclusive [inhibitor, partial curve]"
6,COCCn1nnnc1C(C(C)C)N(Cc1cccnc1)Cc1ccccc1Cl (centres undefined),"inconclusive [inhibitor, single point]"
7,Cc1ncc(N=Nc2ccccc2)c(-c2ccccc2)n1,inactive
8,O=C(Nc1ccccc1N1CCCC1)c1cc2ccccc2o1,active: 28.2 µM
9,CCN1CCN(CC2CC3C=CC2C3)CC1 (centres undefined),"inconclusive [inhibitor, partial curve]"
10,O=C(c1ccc(Cl)cc1)c1cnc2ccccn12,inactive
11,Oc1cc(-n2cccn2)c(O)cc1-n1cccn1,"inconclusive [inhibitor, single point]"
12,COn1c(=O)c(-c2cccs2)[n+]([O-])c2ccccc21,"inconclusive [inhibitor, single point]"
13,Cc1ccc(-c2nc(N3CCOCC3)sc2C(=O)N2CCCCC2)cc1,active: 7.94 µM
14,CC[C@@H]1C(c2cccc(Cl)c2)=NN(c2ccccc2)[C@H]1C(=O)N1CCOC1=O,"inconclusive [inhibitor, partial curve]"
15,CCc1cc(CNC(=O)CC2C(=O)NCCN2Cc2c(F)cccc2Cl)on1 (centres undefined),"inconclusive [inhibitor, single point]"
16,COc1ccccc1N1CCN(C(=O)c2oc3cc(C)c(C)cc3c2C)CC1,"inconclusive [inhibitor, single point]"
17,COCCN(C(=O)Nc1ccccc1)c1ccccc1C,inactive
18,O=C(Nc1ccccc1C(=O)O)/C(=C/c1ccc([N+](=O)[O-])cc1)NC(=O)c1ccc(Br)o1,active: 10 µM
19,Cc1cc(=O)oc(C)c1C(=O)NCCCN1CCN(c2ccccc2F)CC1,"inconclusive [inhibitor, partial curve]"
20,COc1ccc(CCN=C(N)NS(=O)(=O)c2ccc3ccccc3c2)cc1,"inconclusive [inhibitor, single point]"
21,CC(NC(=O)c1ccc(S(=O)(=O)C(F)F)cc1)c1ccccc1 (centres undefined),"inconclusive [inhibitor, single point]"
22,CCNC(=S)N(Cc1ccc2c(c1)OCO2)C1CC(=O)N(c2ccc(OC)cc2)C1=O (centres undefined),inactive
23,Cc1ccc(Cl)cc1N1CCN(C(=O)C2CCN(S(=O)(=O)c3c(C)nn(C)c3C)CC2)CC1,inactive
24,CC(C)(C)C(=O)Nc1ccccc1C(=O)NCc1ccco1,"inconclusive [inhibitor, partial curve]"
